This is an account of results in article PMC7944778.

For experiment [1], the target named is HIV-1 YU2 Env spike on pseudovirus (HIV-1 (strain YU2)) (UniProt P35961).
For experiment [2] the target is unchanged. This is another data set of the same source.

In experiment [1], “CD4-glycophorin A fusion protein on RBCs derived from CD34+ HSCs (receptor)” gave an IC50 of neutralisation of HIV-1YU2 pseudovirus by CD4-GpA-RBCs (modified TZM-bl assay), assay 1 of 3e+06 RBCs/mL; an IC50 of neutralisation of HIV-1YU2 pseudovirus by CD4-GpA-RBCs (modified TZM-bl assay), assay 2 of 900000 RBCs/mL; an IC50 of neutralisation of HIV-1YU2 pseudovirus by CD4-GpA-RBCs (modified TZM-bl assay), assay 3 of 1.7e+06 RBCs/mL.
In experiment [2], “CD4-glycophorin A fusion protein on RBCs derived from the BEL-A/CD4-GpA erythroblast cell line (receptor)” returned an IC50 of neutralisation of HIV-1YU2 pseudovirus by sorted CD4-GpA-RBCs from the BEL-A/CD4-GpA cell line of 2.1e+07 RBCs/mL.
